± gives the standard deviation. Only a part is listed here, and it is no random draw.

Consider four sequences from the supplement of paper PMC10338343.

The assay relates to MIWI (PIWIL1) piRISC loaded with L1MC piRNA (30 nt). In words: pre-steady-state target cleavage rate (min^-1); MIWI and MILI are mouse PIWI proteins and EfPiwi is from a freshwater sponge; tags in brackets are library labels; higher = faster piRNA-guided slicing of the target. As to conditions: guide: L1MC piRNA 5'p-UAACUAAAUACUAUGCAAGCUGUAGGUCCU; auxiliary factor: none (no GTSF1). The gist of the method:
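Sequencing of uncleaved targets, normalised to depth and to weakly complementary targets, was the readout of this Cleave-'n-Seq assay. A transcribed, DNA-blocked target RNA library (0.1 nM) was mixed with 1 nM active affinity-purified piRISC carrying one synthetic guide, with or without 500 nM GTSF1 partner protein, in HEPES–potassium acetate buffer at 33 °C for 0–8 or 0–960 min. Three trials were pooled, k3 was capped at 0.0001 min^-1, and a burst-and-steady-state fit gave the pre-steady-state cleavage rate.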
Turning to UGGCCUACAGCUUGCAUAGUAUUUAGUUA, the “pre-steady-state target cleavage rate” value is 0.0761 ± 0.014.

Regarding UCCUGGAUGUCGAACGCUAGUAUUUAGUUA, the “pre-steady-state target cleavage rate” value is less than 0.0001.

For UCGACCUACAGCUCGCAUAGUAUUUAGUUA, the “pre-steady-state target cleavage rate” value came to 0.0682 ± 0.013.

Take UCGACCUACAGCUUGGAUAGUAUUUAGUUA: the “pre-steady-state target cleavage rate” value is 0.0599 ± 0.01.
